# Data taken from patent US20070099244A1 (TEXAS A AND M UNIVERSITY SYSTEM, published 2007).
# Non-standard residues stand in square brackets, D forms with d. No end group written: not given here. Hyp = O=C(O)[C@@H]1C[C@@H](O)CN1
# B1: recombinant I domain of integrin α2 subunit (receptor)
# chain: CPSLIDVVVVCDESNSIYPWDAVKNFLEKFVQGLDIGPTKTQVGLIQYANNPRVVFNLNTYKTKEEMIVATSQTSQYGGDLTNTFGAIQYARKYAYSAASGGRRSATKVMVVVTDGESHDGSMLKAVIDQCNHDNILRFGIAVLGYLNRNALDTKNLIKEIKAIASIPTERYFFNVSDEAALLEKAGTLGEQIFSIEG
# B2: synthetic collagen peptide #1, (GPO)3GROGROGERGLO(GPO)3 (peptide)
# peptide: GP[Hyp]GP[Hyp]GP[Hyp]GR[Hyp]GR[Hyp]GERGL[Hyp]GP[Hyp]GP[Hyp]GP[Hyp]
# notes: Forms a collagen-like triple helix by CD
# Key:
# [1] = molecular target: T1, purified recombinant human type I procollagen (yeast cells from FibroGen) (human, UniProt P02452 23-1464; P08123 23-1366, hydroxyproline residues formed by co-expressed prolyl 4-hydroxylase; positions not given); experiment: SPR (BIAcore 3000), collagen immobilised on a CM5 chip, equilibrium analysis; low affinity class of sites
# T1 construct: Procollagen, triple helical; also called Collagen I; procollagen I
# T1 sequence (P02452 23-1464, chain 1 of 2): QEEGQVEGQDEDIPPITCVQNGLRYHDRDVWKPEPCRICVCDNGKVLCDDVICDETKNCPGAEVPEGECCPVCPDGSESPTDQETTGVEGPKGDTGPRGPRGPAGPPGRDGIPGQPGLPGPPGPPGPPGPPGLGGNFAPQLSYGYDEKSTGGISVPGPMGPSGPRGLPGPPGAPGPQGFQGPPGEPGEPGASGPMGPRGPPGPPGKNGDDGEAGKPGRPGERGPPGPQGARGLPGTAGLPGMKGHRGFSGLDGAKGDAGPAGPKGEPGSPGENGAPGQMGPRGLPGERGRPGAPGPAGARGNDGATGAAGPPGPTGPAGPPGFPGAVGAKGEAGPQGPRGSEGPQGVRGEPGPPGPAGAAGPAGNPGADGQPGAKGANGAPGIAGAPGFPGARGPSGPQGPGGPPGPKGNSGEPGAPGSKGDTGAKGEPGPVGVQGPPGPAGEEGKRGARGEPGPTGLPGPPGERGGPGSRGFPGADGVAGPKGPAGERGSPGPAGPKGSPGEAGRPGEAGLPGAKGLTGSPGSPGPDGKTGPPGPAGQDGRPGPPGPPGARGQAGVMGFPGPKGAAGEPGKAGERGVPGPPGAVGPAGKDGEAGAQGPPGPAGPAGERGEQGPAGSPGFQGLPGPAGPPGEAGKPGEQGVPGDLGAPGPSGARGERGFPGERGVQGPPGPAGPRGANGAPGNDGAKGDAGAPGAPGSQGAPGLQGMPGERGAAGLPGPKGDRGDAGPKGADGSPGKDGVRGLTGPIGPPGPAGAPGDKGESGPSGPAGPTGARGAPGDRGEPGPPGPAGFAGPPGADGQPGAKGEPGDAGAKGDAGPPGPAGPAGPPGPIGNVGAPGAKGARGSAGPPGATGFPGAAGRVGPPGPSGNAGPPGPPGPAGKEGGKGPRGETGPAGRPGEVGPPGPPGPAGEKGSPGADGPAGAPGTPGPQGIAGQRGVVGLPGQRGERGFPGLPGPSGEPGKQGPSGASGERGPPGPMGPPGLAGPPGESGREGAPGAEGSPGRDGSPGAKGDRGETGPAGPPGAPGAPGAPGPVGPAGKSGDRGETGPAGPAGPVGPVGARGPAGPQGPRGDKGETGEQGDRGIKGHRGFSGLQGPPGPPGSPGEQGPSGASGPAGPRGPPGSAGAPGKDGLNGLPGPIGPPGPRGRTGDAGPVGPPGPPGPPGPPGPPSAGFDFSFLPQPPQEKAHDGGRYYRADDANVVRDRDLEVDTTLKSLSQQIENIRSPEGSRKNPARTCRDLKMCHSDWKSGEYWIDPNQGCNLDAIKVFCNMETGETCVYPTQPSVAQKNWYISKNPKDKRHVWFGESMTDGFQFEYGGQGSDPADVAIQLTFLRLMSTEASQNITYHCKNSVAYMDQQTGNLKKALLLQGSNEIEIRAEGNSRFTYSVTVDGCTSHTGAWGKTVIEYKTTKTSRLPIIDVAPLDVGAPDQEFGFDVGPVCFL
# T1 sequence (P08123 23-1366, chain 2 of 2, further chain): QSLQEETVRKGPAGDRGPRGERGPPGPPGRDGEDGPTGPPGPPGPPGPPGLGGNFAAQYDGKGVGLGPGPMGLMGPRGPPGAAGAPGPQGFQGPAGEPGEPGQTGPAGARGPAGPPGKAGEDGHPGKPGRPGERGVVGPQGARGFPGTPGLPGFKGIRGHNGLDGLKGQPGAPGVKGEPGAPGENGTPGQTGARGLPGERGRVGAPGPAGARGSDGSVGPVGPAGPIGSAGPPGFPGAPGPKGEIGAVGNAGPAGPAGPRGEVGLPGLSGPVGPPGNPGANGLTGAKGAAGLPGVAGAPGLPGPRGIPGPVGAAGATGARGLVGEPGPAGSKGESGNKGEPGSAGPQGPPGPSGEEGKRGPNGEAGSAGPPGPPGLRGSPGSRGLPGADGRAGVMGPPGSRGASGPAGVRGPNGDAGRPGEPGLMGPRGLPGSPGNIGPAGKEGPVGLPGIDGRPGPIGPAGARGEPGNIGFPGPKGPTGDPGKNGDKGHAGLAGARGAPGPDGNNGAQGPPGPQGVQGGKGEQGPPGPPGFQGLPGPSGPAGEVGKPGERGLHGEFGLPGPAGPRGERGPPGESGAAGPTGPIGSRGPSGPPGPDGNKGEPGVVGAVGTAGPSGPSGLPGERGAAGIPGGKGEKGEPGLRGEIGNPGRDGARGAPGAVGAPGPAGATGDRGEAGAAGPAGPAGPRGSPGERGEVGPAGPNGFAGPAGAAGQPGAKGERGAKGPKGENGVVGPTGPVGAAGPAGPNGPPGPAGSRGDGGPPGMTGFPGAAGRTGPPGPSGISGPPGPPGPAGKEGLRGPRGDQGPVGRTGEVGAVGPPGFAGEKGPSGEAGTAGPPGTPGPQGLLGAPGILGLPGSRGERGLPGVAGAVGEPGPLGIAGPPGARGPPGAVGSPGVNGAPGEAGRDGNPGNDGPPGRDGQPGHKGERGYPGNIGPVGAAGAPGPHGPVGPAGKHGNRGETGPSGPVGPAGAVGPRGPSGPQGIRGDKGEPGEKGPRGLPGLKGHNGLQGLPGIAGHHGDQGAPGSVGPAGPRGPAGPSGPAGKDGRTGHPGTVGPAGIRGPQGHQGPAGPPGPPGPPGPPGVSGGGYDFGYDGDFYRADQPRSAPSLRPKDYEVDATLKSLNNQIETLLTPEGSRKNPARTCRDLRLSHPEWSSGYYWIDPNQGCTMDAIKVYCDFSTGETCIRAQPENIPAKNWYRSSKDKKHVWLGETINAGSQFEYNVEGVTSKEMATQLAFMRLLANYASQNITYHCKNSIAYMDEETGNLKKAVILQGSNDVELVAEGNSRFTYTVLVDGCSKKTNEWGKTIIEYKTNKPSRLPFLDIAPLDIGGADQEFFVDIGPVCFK
# [2] = molecular target: T2, bovine mature type II collagen (Sigma) (bovine, UniProt P02459 182-1487); experiment: as above
# T2 construct: mature; Bought tissue collagen; also called type II mature collagen; Collagen II
# [3] = molecular target: T3, purified recombinant human type III procollagen (yeast cells from FibroGen) (human, UniProt P02461 24-1466, hydroxyproline residues formed by co-expressed prolyl 4-hydroxylase; positions not given); experiment: as above
# T3 construct: also called Collagen III; procollagen III
# T3 sequence (looked up): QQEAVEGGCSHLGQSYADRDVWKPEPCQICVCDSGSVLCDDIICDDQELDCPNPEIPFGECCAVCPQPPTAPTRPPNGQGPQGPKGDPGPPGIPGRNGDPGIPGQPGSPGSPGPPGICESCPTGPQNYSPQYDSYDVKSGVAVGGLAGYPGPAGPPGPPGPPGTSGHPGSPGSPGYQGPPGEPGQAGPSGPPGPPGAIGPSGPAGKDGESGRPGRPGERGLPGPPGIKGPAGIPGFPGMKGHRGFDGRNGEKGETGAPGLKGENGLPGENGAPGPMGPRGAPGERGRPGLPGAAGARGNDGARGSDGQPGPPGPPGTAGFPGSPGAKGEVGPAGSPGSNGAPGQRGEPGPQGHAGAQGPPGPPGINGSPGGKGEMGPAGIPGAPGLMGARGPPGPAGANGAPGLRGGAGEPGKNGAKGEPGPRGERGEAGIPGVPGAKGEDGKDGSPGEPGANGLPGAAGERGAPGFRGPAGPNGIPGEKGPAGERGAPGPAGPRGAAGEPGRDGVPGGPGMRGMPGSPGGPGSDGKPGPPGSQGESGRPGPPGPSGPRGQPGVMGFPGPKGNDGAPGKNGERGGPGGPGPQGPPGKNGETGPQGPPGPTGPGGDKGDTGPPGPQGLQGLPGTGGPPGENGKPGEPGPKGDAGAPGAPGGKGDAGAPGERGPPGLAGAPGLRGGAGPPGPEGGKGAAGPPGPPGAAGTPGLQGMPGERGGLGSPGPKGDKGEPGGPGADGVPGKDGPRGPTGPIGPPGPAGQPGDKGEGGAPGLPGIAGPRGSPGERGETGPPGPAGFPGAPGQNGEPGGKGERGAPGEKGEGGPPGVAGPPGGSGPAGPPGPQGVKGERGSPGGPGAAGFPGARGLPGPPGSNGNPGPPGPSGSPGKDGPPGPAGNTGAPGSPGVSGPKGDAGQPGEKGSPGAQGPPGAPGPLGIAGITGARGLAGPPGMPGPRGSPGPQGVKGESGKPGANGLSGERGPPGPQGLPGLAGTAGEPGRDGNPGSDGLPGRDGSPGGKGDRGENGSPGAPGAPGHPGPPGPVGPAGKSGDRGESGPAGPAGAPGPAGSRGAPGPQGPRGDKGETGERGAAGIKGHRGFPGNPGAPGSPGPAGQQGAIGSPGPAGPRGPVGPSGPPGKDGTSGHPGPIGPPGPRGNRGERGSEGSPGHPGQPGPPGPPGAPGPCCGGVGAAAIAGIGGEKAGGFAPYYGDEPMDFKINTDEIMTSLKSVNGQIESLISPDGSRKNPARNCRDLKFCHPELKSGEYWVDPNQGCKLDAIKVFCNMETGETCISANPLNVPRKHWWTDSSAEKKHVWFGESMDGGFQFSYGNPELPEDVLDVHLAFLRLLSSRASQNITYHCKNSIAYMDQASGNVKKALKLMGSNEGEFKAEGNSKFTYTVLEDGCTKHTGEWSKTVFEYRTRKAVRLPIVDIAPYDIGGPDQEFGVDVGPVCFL
# [4] = molecular target: T1, purified recombinant human type I …; experiment: SPR (BIAcore 3000), collagen immobilised on a CM5 chip, equilibrium analysis; high affinity class of sites
# [5] = molecular target: T2, bovine mature type II collagen (Sigma); experiment: as above
# T2 sequence (P02459 182-1487): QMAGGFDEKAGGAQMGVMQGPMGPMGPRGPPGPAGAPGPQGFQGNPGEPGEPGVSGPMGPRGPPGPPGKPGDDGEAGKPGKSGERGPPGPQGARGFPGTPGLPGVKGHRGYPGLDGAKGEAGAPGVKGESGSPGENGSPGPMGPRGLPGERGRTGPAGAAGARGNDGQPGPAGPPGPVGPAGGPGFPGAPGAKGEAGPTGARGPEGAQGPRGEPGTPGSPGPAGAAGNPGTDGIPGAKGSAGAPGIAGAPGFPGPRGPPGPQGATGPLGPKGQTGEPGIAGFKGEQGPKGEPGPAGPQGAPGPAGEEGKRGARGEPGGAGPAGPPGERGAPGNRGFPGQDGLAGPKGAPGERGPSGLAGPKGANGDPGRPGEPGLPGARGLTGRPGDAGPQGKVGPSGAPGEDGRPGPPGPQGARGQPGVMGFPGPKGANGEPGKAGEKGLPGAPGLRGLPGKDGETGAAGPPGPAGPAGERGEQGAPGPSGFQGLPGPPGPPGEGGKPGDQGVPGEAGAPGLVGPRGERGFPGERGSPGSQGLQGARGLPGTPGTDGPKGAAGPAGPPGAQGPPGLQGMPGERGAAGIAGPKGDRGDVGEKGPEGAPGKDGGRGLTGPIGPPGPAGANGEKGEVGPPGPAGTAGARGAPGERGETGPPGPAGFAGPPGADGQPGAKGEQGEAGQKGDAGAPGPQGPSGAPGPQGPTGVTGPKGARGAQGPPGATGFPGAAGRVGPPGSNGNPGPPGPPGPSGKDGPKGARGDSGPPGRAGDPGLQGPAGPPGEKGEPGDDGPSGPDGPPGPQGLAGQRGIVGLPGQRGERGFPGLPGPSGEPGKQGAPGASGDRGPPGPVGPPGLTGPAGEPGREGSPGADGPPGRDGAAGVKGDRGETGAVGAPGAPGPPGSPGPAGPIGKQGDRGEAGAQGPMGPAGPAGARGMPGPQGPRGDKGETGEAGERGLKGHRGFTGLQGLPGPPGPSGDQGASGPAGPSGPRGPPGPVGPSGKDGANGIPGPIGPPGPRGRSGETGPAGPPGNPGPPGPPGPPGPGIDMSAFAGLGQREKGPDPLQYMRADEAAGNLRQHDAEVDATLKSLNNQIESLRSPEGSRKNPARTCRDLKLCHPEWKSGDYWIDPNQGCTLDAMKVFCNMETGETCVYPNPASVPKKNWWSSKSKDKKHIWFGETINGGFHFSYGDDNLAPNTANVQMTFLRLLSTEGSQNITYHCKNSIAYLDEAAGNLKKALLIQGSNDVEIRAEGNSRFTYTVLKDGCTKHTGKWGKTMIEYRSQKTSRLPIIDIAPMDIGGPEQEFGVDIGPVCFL
# [6] = molecular target: T3, purified recombinant human type III …; experiment: as above
# [7] = molecular target: B1; experiment: competition ELISA; peptide competes with coated type III procollagen for 5 µM α2I
# [8] = molecular target: B1; experiment: competition ELISA; peptide competes with coated bovine type I collagen for 5 µM α2I
# [9] = molecular target: T4, recombinant I domain of integrin α1 subunit (UniProt P56199 167-364); experiment: competition ELISA; peptide competes with coated type III procollagen for 0.5 µM α1I
# [10] = molecular target: T4, recombinant I domain of integrin α1 …; experiment: competition ELISA; peptide competes with coated bovine type I collagen for 0.5 µM α1I
# [11] = molecular target: T4, recombinant I domain of integrin α1 …; experiment: SPR (BIAcore 3000) at 15° C, peptide #1 immobilised on a CM5 chip, I domain 0.5-30 nM, 1:1 binding model
# [12] = molecular target: B1; experiment: as above
Binder,Kd [1] [µM],Kd [2] [µM],Kd [3] [µM],Kd [4] [nM],Kd [5] [nM],Kd [6] [nM],IC50 [7] [nM],IC50 [8] [nM],IC50 [9] [nM],IC50 [10] [nM],Kd [11] [nM],koff [11] [s⁻¹],kon [11] [M⁻¹ s⁻¹],Kd [12] [nM],koff [12] [s⁻¹],kon [12] [M⁻¹ s⁻¹]
B1,3.99,16.5,14.5,260,1750,330,,,,,,,,,,
B2,,,,,,,1900,140,1000,1400,23,0.0013,56000,283,0.012,44000
